# Laboratory results as given in the supplement of paper PMC12217912.
# The list shows a part of the results. Sequences were assembled here from the parent chain. Values near 0.05 are background.
# B1: TEV protease; numbered along this chain (parent)
# chain: MGESLFKGPRDYNPISSSICHLTNESDGHTTSLYGIGFGPFIITNKHLFRRNNGTLVVQSLHGVFKVKDTTTLQQHLVDGRDMIIIRMPKDFPPFPQKLKFREPQREERICLVTTNFQTKSMSSMVSDTSCTFPSGDGIFWKHWIQTKDGQCGSPLVSTRDGFIVGIHSASNFTNTNNYFTSVPKNFMELLTNQEAQQWVSGWRLNADSVLWGGHKVFMVKPEEPFQPVKEATQL
# Variants of: B1
# Assay: raw area under fraction-flipped curve 0-4 h after induction (AUC4h, not background-subtracted), DNA-recorder readout of cleavage of the substrate (dimensionless); higher = more cleavage of the substrate by the protease variant
# Settings: temperature: 34 °C; time window: 0-4 h after rhamnose induction
# Method: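 In vivo DNA recorder in E. coli TOP10(DE3) ΔrhaA at 34 °C. Each TEVp single-site mutant (parent TEVp 0) is paired with a single-site variant of the 7-mer TEVs (canonical ENLYFQ|S). The substrate sits between flexible linkers in a Bxb1-sfGFP-TEVs-SsrA fusion, so cleavage stabilises Bxb1 and speeds flipping of a recombination array, read by NGS. The value is the raw area under the fraction-flipped curve over 0-4 h after rhamnose induction (AUC4h), with ≥20 reads per time point. It is not background-subtracted; inactive controls average about 0.047.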
# 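Also: Bxb1 expression induced with 0.2% (w/v) L-rhamnose at OD600 near 0.5, cultures sampled hourly, flipped fraction per protease–substrate barcode pair counted by paired-end Illumina sequencing.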
Variant,area with substrate ENLDFQS,area with substrate ENLIFQS,area with substrate ENLPFQS,area with substrate ENLSFQS,area with substrate ENLEFQS,area with substrate ENLFFQS,area with substrate ENLHFQS,area with substrate ENLKFQS,area with substrate ENLLFQS,area with substrate ENLNFQS
G35A,0.0531,0.0569,0.0615,0.0733,–,–,–,–,–,–
T44M,0.0593,0.0296,0.0531,0.0646,0.0073,0.065,0.0539,0.0732,0.0606,0.0599
V57I,0.0634,0.0962,–,0.0576,–,0.117,–,0.0814,–,0.0605
V58G,0.0499,–,–,–,–,0.0632,0.0474,0.0524,–,–
V58L,0.0547,0.0551,0.076,0.0779,0.0635,0.0696,0.0628,–,0.0417,–
V58M,0.0605,0.0979,–,0.079,0.0589,0.0591,–,0.0903,0.0699,0.0624
V58S,0.0598,0.0735,–,0.0603,0.064,–,0.0584,0.0687,–,–
K66A,0.0469,–,–,–,0.0631,–,0.0706,–,0.0751,0.0574
K66Q,0.0742,–,0.0623,0.0711,–,0.129,–,–,0.0484,–
Q75M,0.0715,–,–,–,–,–,–,0.0834,0.0698,0.0624
V78I,0.0552,0.0686,0.0551,0.0647,0.0733,0.0784,0.0671,0.0898,0.0723,0.0562
R81P,0.0721,–,–,–,–,0.0715,–,–,–,–
R87D,0.0449,–,–,–,–,0.111,–,0.0456,–,–
R87N,0.0526,–,–,0.0442,–,0.0732,–,0.0949,–,–
D91T,0.0954,0.0733,–,0.0397,0.0792,0.112,–,0.0805,–,0.0635
F92K,0.0524,–,–,–,–,0.0842,0.0576,0.066,–,–
F92L,0.0572,–,–,–,0.0513,0.0819,–,0.0773,–,0.059
P94V,0.0585,0.105,–,0.0716,–,–,0.0958,0.0937,–,–
F95L,0.0541,–,–,–,–,0.0929,–,0.0744,0.0475,–
Q97G,0.077,–,–,–,–,0.106,–,–,–,–
L99K,0.055,–,–,–,–,–,–,–,–,0.0641
L99M,0.0651,0.0853,0.0443,0.0601,0.0634,0.0993,0.0716,0.0636,0.0726,–
F101E,0.0576,–,0.0593,–,0.0753,0.0413,–,0.0626,–,0.0505

# Same assay, conditions: temperature: 34 °C; time window: 0-4 h after rhamnose induction
Variant,area with substrate ENLRFQS,area with substrate ENLVFQS,area with substrate ENLTFQS,area with substrate ENLGFQS,area with substrate ENLWFQS,area with substrate ENLMFQS,area with substrate ENLQFQS
T44M,0.0549,0.0702,–,–,–,–,–
V57I,0.0674,0.0638,0.0775,–,–,–,–
V58G,0.0611,–,0.0473,–,–,–,–
V58L,–,–,–,0.0794,0.106,–,–
V58M,–,0.105,–,–,–,–,–
V58S,0.0662,–,–,–,–,–,–
K66Q,0.0572,–,–,–,–,0.0791,0.0453
Q75M,0.053,0.0977,–,–,0.0546,–,0.0711
V78I,0.0566,–,–,–,0.0704,0.0859,–
R81P,–,–,–,–,0.0563,–,–
R87D,–,–,–,0.0598,0.0458,–,–
D91T,0.092,–,–,–,0.0592,–,–
F92K,–,–,–,–,0.0687,–,0.0351
F92L,–,–,–,–,–,–,0.0613
F95L,–,–,–,–,0.078,–,–
Q97G,0.0823,–,–,–,–,–,0.0643
L99K,0.0476,–,–,–,–,–,–
L99M,–,–,–,–,0.0775,0.0666,0.0584
F101E,0.035,–,–,–,0.0451,–,–
